The structures appear in SMILES notation. This is one part of the list.

Experiment [1] relates to HSkMC (human skeletal muscle cells). As to the kind of experiment: cytotoxicity call (relative viability < 0.9). The following applies: 10 µM.
The test system of experiment [2] is HepG2. Description: cytotoxicity call (relative viability < 0.9). The following applies: 10 µM.
In experiment [3] the test system is S. aureus RN4220. As to the kind of experiment: growth inhibition call (relative growth <= 0.2). The following applies: 50 µM.

Take `COCC#Cc1ccc2c(c1)O[C@H](CN(C)S(=O)(=O)c1ccc(C)cc1)[C@H](C)CN([C@@H](C)CO)S2(=O)=O`: the cytotoxicity call in experiment [1] and in experiment [2] was “inactive” each time. The growth inhibition call in experiment [3] is “inactive”.

For the compound `CO[C@@H]1CN(C)C(=O)c2cc(NC(=O)c3cc(C)on3)ccc2OC[C@@H](C)N(S(=O)(=O)c2ccccc2)C[C@H]1C`, the cytotoxicity call in experiment [1] and in experiment [2] was “inactive” each time. The growth inhibition call in experiment [3] is “inactive”.

For `CCCNC(=O)Nc1ccc2c(c1)C(=O)N(C)C[C@@H](OC)[C@H](C)CN(Cc1ccc(-c3ccccn3)cc1)[C@H](C)CO2`, the cytotoxicity call in experiment [1] and in experiment [2] was “inactive” in each case. Also, the growth inhibition call in experiment [3] is “inactive”.

Consider `Cc1cccc(N(C)C(=S)Oc2ccc3ccccc3c2)c1`, for which the cytotoxicity call in experiment [1] and in experiment [2] was “inactive” in each case. For the same compound, in experiment [3], the growth inhibition call was “inactive”.

For the compound `CC(C)NC(=O)N(C)C[C@H]1OCCCC[C@@H](C)Oc2ccc(NC(=O)Nc3ccc(F)cc3)cc2C(=O)N([C@H](C)CO)C[C@@H]1C`, the cytotoxicity call in experiment [1] and in experiment [2] was “inactive” each time. In addition, the growth inhibition call in experiment [3] was “inactive”.

Regarding `COCCNC(=O)C[C@H]1C[C@@H]2c3cc(NC(=O)CN(C)C)ccc3O[C@@H]2[C@H](CO)O1`, the cytotoxicity call in experiment [1] and in experiment [2] was “inactive” throughout. For the same compound, the growth inhibition call in experiment [3] was “inactive”.

As for `C[C@H](CO)N1C[C@H](C)[C@@H](CN(C)CC2CC2)Oc2c(NS(=O)(=O)c3cn(C)cn3)cccc2C1=O`, the cytotoxicity call in experiment [1] and in experiment [2] was “inactive” each time. Also, in experiment [3], the growth inhibition call is “inactive”.

For `C[C@@H]1CN([C@H](C)CO)C(=O)Cc2cc(NS(=O)(=O)c3ccc(Cl)cc3)ccc2O[C@@H]1CN(C)Cc1ccc(C(F)(F)F)cc1`, the cytotoxicity call in experiment [1] was “active”. Further, the cytotoxicity call in experiment [2] was “inactive”. Moreover, the growth inhibition call in experiment [3] was “inactive”.

Consider `C[C@H]1CN([C@@H](C)CO)C(=O)Cc2cc(NC(=O)C3CCCCC3)ccc2O[C@@H]1CN(C)Cc1ccc(Oc2ccccc2)cc1`, for which the cytotoxicity call in experiment [1] and in experiment [2] was “inactive” each time. The growth inhibition call in experiment [3] was “inactive”.

As to `CCS(=O)(=O)N1[C@@H](CO)[C@H](c2ccccc2)C12CN(C(=O)CN(C)C)C2`, the cytotoxicity call in experiment [1] and in experiment [2] was “inactive” in each case. In experiment [3], the growth inhibition call is “inactive”.

Consider `C[C@H](O)C#Cc1cnc2c(c1)C(=O)N([C@@H](C)CO)C[C@H](C)[C@@H](CN(C)Cc1cncnc1)O2`, for which the cytotoxicity call in experiment [1] and in experiment [2] was “inactive” in each case. Moreover, the growth inhibition call in experiment [3] is “inactive”.

Regarding `C[C@@H]1CN([C@H](C)CO)C(=O)Cc2cc(NC(=O)Cc3cn(C)c4ccccc34)ccc2O[C@H]1CN(C)C`, the cytotoxicity call in experiment [1] and in experiment [2] was “inactive” each time. In experiment [3], the growth inhibition call is “inactive”.

In the case of `CCCNC(=O)Nc1ccc2c(c1)C(=O)N(C)C[C@H](OC)[C@@H](C)CN(Cc1ccc(-c3ccccn3)cc1)[C@H](C)CO2`, the cytotoxicity call in experiment [1] and in experiment [2] was “inactive” throughout. In addition, the growth inhibition call in experiment [3] is “inactive”.

Consider `COCC(=O)N1C[C@@H]2OCCN(c3ccc(C)nn3)[C@H]2C1`, for which the cytotoxicity call in experiment [1] and in experiment [2] was “inactive” in each case. In addition, the growth inhibition call in experiment [3] was “inactive”.

On to `Cl.Nc1c(Br)cc(Br)cc1CNC1CCC(O)CC1` (stereo not drawn), for which the cytotoxicity call in experiment [1] and in experiment [2] was “inactive” throughout. Besides, the growth inhibition call in experiment [3] was “inactive”.

For the compound `COc1ccc(S(=O)(=O)N(C)C[C@@H]2Oc3ccc(NS(=O)(=O)c4c(C)noc4C)cc3CC(=O)N([C@H](C)CO)C[C@H]2C)cc1`, the cytotoxicity call in experiment [1] and in experiment [2] was “inactive” each time. In addition, the growth inhibition call in experiment [3] was “inactive”.

In the case of `Cc1ccccc1S(=O)(=O)N1C[C@@H](O)COC[C@H]2O[C@H](CC(=O)N3CCC(Cc4ccccc4)CC3)CC[C@@H]21`, the cytotoxicity call in experiment [1] was “inactive”. For the same compound, the cytotoxicity call in experiment [2] was “active”. Moreover, the growth inhibition call in experiment [3] was “inactive”.

On to `C[C@H]1CN([C@@H](C)CO)C(=O)CCCn2cc(nn2)CO[C@@H]1CN(C)C(=O)Nc1ccc(C(C)(C)C)cc1`, for which the cytotoxicity call in experiment [1] and in experiment [2] was “inactive” in each case. Besides, in experiment [3], the growth inhibition call is “inactive”.

`Fc1ccc(CSc2nc3ccccc3[nH]2)c2ccccc12`: the cytotoxicity call in experiment [1] and in experiment [2] was “inactive” in each case. In addition, the growth inhibition call in experiment [3] is “inactive”.

For the compound `O=C(C[C@@H]1CC[C@@H]2[C@H](COC[C@@H](O)CN2S(=O)(=O)c2cccc(Cl)c2)O1)NCc1ccc2c(c1)OCO2`, the cytotoxicity call in experiment [1] and in experiment [2] was “inactive” each time. The growth inhibition call in experiment [3] is “inactive”.

As for `O=C(NCC(F)(F)F)[C@@H]1c2ccccc2C(=O)N(Cc2ccccc2C(F)(F)F)[C@H]1c1ccc(CO)cc1`, the cytotoxicity call in experiment [1] and in experiment [2] was “inactive” in each case. For the same compound, in experiment [3], the growth inhibition call was “inactive”.

As for `Cc1ccc(S(=O)(=O)Nc2cccc3c2O[C@H](CN(C)C(=O)Nc2ccc(C(F)(F)F)cc2)[C@@H](C)CN([C@H](C)CO)C3=O)cc1`, the cytotoxicity call in experiment [1] and in experiment [2] was “inactive” each time. In addition, the growth inhibition call in experiment [3] was “inactive”.

Consider `COc1ccc([C@H]([C@@H](O)Cc2ccccc2)N(CC#C[C@@H](O[Si](c2ccccc2)(c2ccccc2)C(C)(C)C)c2ccccc2)[C@@H](Cc2ccccc2)C(OC)OC)cc1`, for which the cytotoxicity call in experiment [1] and in experiment [2] was “inactive” in each case. Further, the growth inhibition call in experiment [3] was “inactive”.

`C[C@@H]1CN([C@@H](C)CO)S(=O)(=O)c2ccc(C#CC3CC3)cc2O[C@@H]1CN(C)C(=O)Cc1ccncc1`: the cytotoxicity call in experiment [1] and in experiment [2] was “inactive” in each case. In experiment [3], the growth inhibition call is “inactive”.

Consider `C[C@H](CO)N1C[C@H](C)[C@H](CN(C)S(=O)(=O)c2ccc(F)cc2)OCCCC[C@H](C)Oc2ccc(NC(=O)Nc3ccc(F)cc3)cc2C1=O`, for which the cytotoxicity call in experiment [1] and in experiment [2] was “inactive” throughout. For the same compound, the growth inhibition call in experiment [3] was “inactive”.

In the case of `COc1ccc(NC(=O)N(C)C[C@@H]2OCCCC[C@@H](C)Oc3ccc(NC(=O)c4ccncc4)cc3C(=O)N([C@H](C)CO)C[C@@H]2C)cc1`, the cytotoxicity call in experiment [1] and in experiment [2] was “inactive” in each case. The growth inhibition call in experiment [3] was “inactive”.

(Values after the antibiotic and cytotoxicity screens of Wong et al. (2023).)
